PubChem BioAssay AID894 (National Center for Advancing Translational Sciences (NCATS), 2007)
The whole screen tested about 150,000 compounds, of which about 6,500 (4.3%) were called active. The inconclusive results got no clear call from the source; some entries with a clear call stand among them for comparison. Calls come from the whole dose curve; as a rule, active = well fitted inhibition curve with a large enough effect (not every such curve was filed as active); inconclusive = small, poorly fitted or top-dose-only effect, or another doubt; inactive = no such curve, though single readings can be large or run the other way. Potencies of inconclusive entries are left out as doubtful fits. Where a structure was tested more than once in an assay, its records may differ in their call.

target: 15-hydroxyprostaglandin dehydrogenase [NAD(+)] (Homo sapiens) (UniProt P15428); assay: qHTS Assay for Inhibitors of HPGD (15-Hydroxyprostaglandin Dehydrogenase); conditions: purified HPGD, NADH fluorescence kinetic, PGE2 substrate; activity change, negative = inhibition: active compounds read low
In short: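 NADH formation kinetics: reaction with 30 uM PGE2 and 1 mM NAD+ (final), 20 nM enzyme, Tris-HCl pH 8 with Tween 20, after 15 min compound preincubation at room temperature. Fluorescence change, last versus first of five reads.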
% is set by controls: 0 for no effect and ±100 for the full control effect; potency is the fitted concentration of half-maximal effect; tags give direction and shape of the fitted curve.

UniProt P15428, sequence (P15428 whole entry, looked up): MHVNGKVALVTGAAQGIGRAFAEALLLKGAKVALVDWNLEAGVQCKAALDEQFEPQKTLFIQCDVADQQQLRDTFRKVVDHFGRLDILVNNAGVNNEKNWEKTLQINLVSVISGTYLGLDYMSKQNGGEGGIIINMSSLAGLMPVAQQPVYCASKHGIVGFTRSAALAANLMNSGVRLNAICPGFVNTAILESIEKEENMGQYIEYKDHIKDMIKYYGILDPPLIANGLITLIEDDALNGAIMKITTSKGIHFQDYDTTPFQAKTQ

Row | Structure (SMILES) | Potency | activity change, negative = inhibition
1 | COC(=O)c1c(N)n(Cc2ccc(OC)cc2)c2nc3ccccc3nc12 | inconclusive [inhibitor, partial curve] | –
2 | CCCn1c(C)c(C(=O)c2cccc3ccccc23)c2ccccc21 | inconclusive [inhibitor, partial curve] | –
3 | CCOP(=O)(OCC)c1nc(-c2ccccc2)oc1NCc1ccccc1 | inconclusive [inhibitor, partial curve] | –
4 | COCc1cc(C)c(C#N)c(=S)[nH]1 | inconclusive [inhibitor, single point] | –
5 | Oc1ccccc1-c1ccccc1 | inconclusive [inhibitor, single point] | –
6 | CCC(=NCCCN1CCOCC1)c1c(O)n(Cc2ccccc2)c(=O)[nH]c1=O | inconclusive [inhibitor, partial curve] | –
7 | Cc1ccc2c(c1)N(CCC(=O)N1CCC3(CC1)OCCO3)C(=O)CO2 | – | inactive: -13.1%
8 | O=P(O)(O)CCP(=O)(O)O | – | inactive: -6.19%
9 | Cc1ccc(-n2sc3ccccc3c2=O)cc1 | active: 0.631 µM | –
10 | COC(=O)[C@@H]1[C@@H](C(=O)OC)C2(c3ccccc3-c3ccccc32)N(c2ccc(Cl)cc2)N1C#N | inconclusive [inhibitor, single point] | –
11 | COCCOC(=O)c1c(N)n(Cc2ccccc2)c2nc3ccccc3nc12 | inconclusive [inhibitor, partial curve] | –
12 | CCCCC/C=C\C/C=C\C/C=C\C/C=C\CCCC(=O)OC(CO)CO | active: 28.2 µM | –
13 | CCOC(=O)c1c(N)n(Cc2ccccc2)c2nc3ccccc3nc12 | inconclusive [inhibitor, partial curve] | –
14 | CC1CCN(C(=O)CCl)CC1 | – | inactive: 3.63%
15 | CCC(C)N1C(=O)/C(=C\c2ccc(N3CCCCCC3)cc2)C(=O)NC1=S (configuration not stated) | active: 20 µM | –
16 | N#CSCC(=O)N1c2ccccc2CCc2ccccc21 | active: 17.8 µM | –
17 | N=C(N)c1ccc(-c2ccc(-c3ccc(C(=N)N)cc3)o2)cc1 | inconclusive [inhibitor, partial curve] | –
18 | CC(C)(C)NC[C@H](O)c1cc(Cl)c(N)c(Cl)c1 | – | inactive: -1.66%
19 | CCOc1ccc(N2C(=O)NC(=O)/C(=C\c3cc(OC)c(OC)cc3[N+](=O)[O-])C2=O)cc1 | active: 28.2 µM | –
20 | COC(C)C(O)(C(=O)OC1=CCN2CC[C@H](O)[C@H]12)C(C)C (some centres not stated) | – | inactive: 4.18%
21 | CCC1CN2CCC1CC2C(O)c1ccnc2ccccc12 (configuration not stated) | – | inactive: 3.32%
22 | O=C1NC(=O)N(Cc2ccco2)C(=O)/C1=C/c1cccn1CCOc1ccccc1Cl | active: 28.2 µM | –
